Measured values reported in PMC8298518.
No constants are given. Whether binding was seen depends on the method and setting. Binding seen in cells or lysates may run through a third protein. Some results given as binding are weak or reduced against the parent protein; the word gives no strength. Sequences can lack the tags named with a protein.

Amino acid sequences for entries named in this document (tags omitted).
UniProt Q07820: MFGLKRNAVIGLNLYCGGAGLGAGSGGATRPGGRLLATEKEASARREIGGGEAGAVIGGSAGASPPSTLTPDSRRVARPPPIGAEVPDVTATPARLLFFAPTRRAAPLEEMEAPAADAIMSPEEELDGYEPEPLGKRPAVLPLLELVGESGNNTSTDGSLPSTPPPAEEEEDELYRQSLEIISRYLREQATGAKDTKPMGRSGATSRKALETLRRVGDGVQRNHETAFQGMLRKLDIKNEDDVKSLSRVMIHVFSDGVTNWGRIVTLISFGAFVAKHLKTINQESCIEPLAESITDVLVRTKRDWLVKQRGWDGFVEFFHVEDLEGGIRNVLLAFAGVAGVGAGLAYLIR

Biological target: T1, HA-GBP2 (human) (UniProt P32456)
T1 sequence: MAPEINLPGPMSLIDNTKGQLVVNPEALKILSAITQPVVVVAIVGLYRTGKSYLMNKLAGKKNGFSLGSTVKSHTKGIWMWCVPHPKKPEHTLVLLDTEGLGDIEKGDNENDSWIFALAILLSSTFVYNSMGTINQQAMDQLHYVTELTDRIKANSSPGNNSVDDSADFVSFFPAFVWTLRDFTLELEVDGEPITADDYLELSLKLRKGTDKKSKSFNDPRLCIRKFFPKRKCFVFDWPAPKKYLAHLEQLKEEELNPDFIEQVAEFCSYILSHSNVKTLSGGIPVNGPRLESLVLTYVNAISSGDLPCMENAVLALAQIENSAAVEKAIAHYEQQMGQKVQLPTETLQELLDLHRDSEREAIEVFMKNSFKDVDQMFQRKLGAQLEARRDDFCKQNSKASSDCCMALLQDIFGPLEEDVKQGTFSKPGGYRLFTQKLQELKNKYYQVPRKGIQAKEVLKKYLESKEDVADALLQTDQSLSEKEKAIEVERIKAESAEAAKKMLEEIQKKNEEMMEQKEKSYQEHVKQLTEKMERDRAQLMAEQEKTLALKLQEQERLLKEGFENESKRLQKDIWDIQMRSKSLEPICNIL
Test: co-IP; 293T cells (2 x 10^6) cotransfected for 24 h; lysates immunoprecipitated with anti-HA

binding: binds
Substance: Flag-tagged MCL-1 WT (from UniProt Q07820 1-350)
